Data taken from the supplement of paper PMC10369915.
The list shows a part of the results. Rule as the data show it: active = 3.2 or more and inactive = the rest. Only a few entries rise above the background.

Molecular target: SHP2 C-SH2 domain E139D
Experiment: enrichment score (SH2-bound / input frequency) (ratio); bacterial display of known human phosphotyrosine sites (pTyr-Var adds point mutants) read by sequencing; higher = stronger binding; tyrosines were phosphorylated by kinases first
Settings: peptide library: pTyr-Var
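Also: displayed peptides selected on beads carrying the immobilized SH2 domain, with library peptides lacking any tyrosine serving as negative controls.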

Enrichment score, inactive:
GKSHIYFWTLE [EML2_Y230] 0.951, SDPIVYTLENI [EMR1_Y534_I533V] 0.679, TAALWYIFLHT [ENG_Y612_S615L_YF] 1.64, TAALWYIFSHT [ENG_Y612_YF] 1.78, ALWYIYLHTRS [ENG_Y614_S615L] 0.739, ALWFIYLHTRS [ENG_Y614_S615L_YF] 0.696, ALWFIYSHTRS [ENG_Y614_YF] 1.3, IGKAGYTDKVV [ENO1_Y236] 0.712, IGKAGYTDKMV [ENO1_Y236_V240M] 0.675, IDNKMYDPKMN [ENPP1_Y280] 0.724, HSFQCYGQNEA [ENTPD3_Y262_R264Q] 0.567, PQGVGYPQQQQ [EP300_Y2219_P2221Q] 0.462, PQGVGYPPQPQ [EP300_Y2219_Q2223P] 0.765, FATAGYGSLEA [EPHA10_Y959_A956T] 0.743, LTVVIYVLIGR [EPHA3_Y561] 0.47, GRFCGYKSKHG [EPHA3_Y570] 2.51, GRFSGYKSKHG [EPHA3_Y570_C568S] 1.08, AEPHTYEEPGR [EPHA8_Y616] 0.441, LAEMNYVHRDL [EPHB1_Y740] 0.615

Molecular target: SHP2 C-SH2 domain wild-type
Experiment: as above
Settings: peptide library: pTyr-Var

Enrichment score, inactive:
GKSHIYFWTLE [EML2_Y230] 0.89, SDPIVYTLENI [EMR1_Y534_I533V] 0.663, TAALWYIFLHT [ENG_Y612_S615L_YF] 1.81, TAALWYIFSHT [ENG_Y612_YF] 1.46, ALWYIYLHTRS [ENG_Y614_S615L] 0.792, ALWFIYLHTRS [ENG_Y614_S615L_YF] 0.716, ALWFIYSHTRS [ENG_Y614_YF] 1.5, IGKAGYTDKVV [ENO1_Y236] 0.813, IGKAGYTDKMV [ENO1_Y236_V240M] 0.801, IDNKMYDPKMN [ENPP1_Y280] 0.767, HSFQCYGQNEA [ENTPD3_Y262_R264Q] 0.756, PQGVGYPQQQQ [EP300_Y2219_P2221Q] 0.561, PQGVGYPPQPQ [EP300_Y2219_Q2223P] 0.737, FATAGYGSLEA [EPHA10_Y959_A956T] 0.653, LTVVIYVLIGR [EPHA3_Y561] 0.443, GRFCGYKSKHG [EPHA3_Y570] 1.59, GRFSGYKSKHG [EPHA3_Y570_C568S] 0.789, AEPHTYEEPGR [EPHA8_Y616] 0.532, LAEMNYVHRDL [EPHB1_Y740] 0.743

Molecular target: SHP2 N-SH2 domain L43F
Experiment: as above
Settings: peptide library: pTyr-Var

Enrichment score, inactive:
GKSHIYFWTLE [EML2_Y230] 0.762, SDPIVYTLENI [EMR1_Y534_I533V] 0.648, TAALWYIFLHT [ENG_Y612_S615L_YF] 1.75, TAALWYIFSHT [ENG_Y612_YF] 1.43, ALWYIYLHTRS [ENG_Y614_S615L] 0.631, ALWFIYLHTRS [ENG_Y614_S615L_YF] 0.746, ALWFIYSHTRS [ENG_Y614_YF] 1.55, IGKAGYTDKVV [ENO1_Y236] 0.856, IGKAGYTDKMV [ENO1_Y236_V240M] 0.64, IDNKMYDPKMN [ENPP1_Y280] 0.551, HSFQCYGQNEA [ENTPD3_Y262_R264Q] 0.946, PQGVGYPQQQQ [EP300_Y2219_P2221Q] 0.902, PQGVGYPPQPQ [EP300_Y2219_Q2223P] 0.7, FATAGYGSLEA [EPHA10_Y959_A956T] 0.691, LTVVIYVLIGR [EPHA3_Y561] 0.278, GRFCGYKSKHG [EPHA3_Y570] 2.13, GRFSGYKSKHG [EPHA3_Y570_C568S] 0.672, AEPHTYEEPGR [EPHA8_Y616] 0.482, LAEMNYVHRDL [EPHB1_Y740] 0.561

Molecular target: SHP2 N-SH2 domain T42A
Experiment: as above
Settings: peptide library: pTyr-Var

Enrichment score, inactive:
GKSHIYFWTLE [EML2_Y230] 0.663, SDPIVYTLENI [EMR1_Y534_I533V] 0.749, TAALWYIFLHT [ENG_Y612_S615L_YF] 1.42, TAALWYIFSHT [ENG_Y612_YF] 1.4, ALWYIYLHTRS [ENG_Y614_S615L] 0.622, ALWFIYLHTRS [ENG_Y614_S615L_YF] 0.729, ALWFIYSHTRS [ENG_Y614_YF] 1.51, IGKAGYTDKVV [ENO1_Y236] 0.699, IGKAGYTDKMV [ENO1_Y236_V240M] 0.575, IDNKMYDPKMN [ENPP1_Y280] 0.66, HSFQCYGQNEA [ENTPD3_Y262_R264Q] 0.789, PQGVGYPQQQQ [EP300_Y2219_P2221Q] 0.541, PQGVGYPPQPQ [EP300_Y2219_Q2223P] 0.571, FATAGYGSLEA [EPHA10_Y959_A956T] 0.78, LTVVIYVLIGR [EPHA3_Y561] 0.256, GRFCGYKSKHG [EPHA3_Y570] 1.66, GRFSGYKSKHG [EPHA3_Y570_C568S] 0.667, AEPHTYEEPGR [EPHA8_Y616] 0.433, LAEMNYVHRDL [EPHB1_Y740] 0.745

Molecular target: SHP2 N-SH2 domain T52S
Experiment: as above
Settings: peptide library: pTyr-Var

Enrichment score, inactive:
GKSHIYFWTLE [EML2_Y230] 0.857, SDPIVYTLENI [EMR1_Y534_I533V] 0.957, TAALWYIFLHT [ENG_Y612_S615L_YF] 1.57, TAALWYIFSHT [ENG_Y612_YF] 1.36, ALWYIYLHTRS [ENG_Y614_S615L] 0.782, ALWFIYLHTRS [ENG_Y614_S615L_YF] 0.6, ALWFIYSHTRS [ENG_Y614_YF] 1.45, IGKAGYTDKVV [ENO1_Y236] 0.847, IGKAGYTDKMV [ENO1_Y236_V240M] 0.739, IDNKMYDPKMN [ENPP1_Y280] 0.584, HSFQCYGQNEA [ENTPD3_Y262_R264Q] 0.919, PQGVGYPQQQQ [EP300_Y2219_P2221Q] 0.562, PQGVGYPPQPQ [EP300_Y2219_Q2223P] 0.659, FATAGYGSLEA [EPHA10_Y959_A956T] 0.676, LTVVIYVLIGR [EPHA3_Y561] 0.408, GRFCGYKSKHG [EPHA3_Y570] 2.15, GRFSGYKSKHG [EPHA3_Y570_C568S] 0.603, AEPHTYEEPGR [EPHA8_Y616] 0.485, LAEMNYVHRDL [EPHB1_Y740] 0.68

Molecular target: SHP2 N-SH2 domain wild-type
Experiment: as above
Settings: peptide library: pTyr-Var

Enrichment score, inactive:
GKSHIYFWTLE [EML2_Y230] 1.12, SDPIVYTLENI [EMR1_Y534_I533V] 0.848, TAALWYIFLHT [ENG_Y612_S615L_YF] 1.8, TAALWYIFSHT [ENG_Y612_YF] 1.6, ALWYIYLHTRS [ENG_Y614_S615L] 0.912, ALWFIYLHTRS [ENG_Y614_S615L_YF] 0.781, ALWFIYSHTRS [ENG_Y614_YF] 1.68, IGKAGYTDKVV [ENO1_Y236] 0.97, IGKAGYTDKMV [ENO1_Y236_V240M] 0.965, IDNKMYDPKMN [ENPP1_Y280] 0.846, HSFQCYGQNEA [ENTPD3_Y262_R264Q] 1.19, PQGVGYPQQQQ [EP300_Y2219_P2221Q] 0.594, PQGVGYPPQPQ [EP300_Y2219_Q2223P] 0.827, FATAGYGSLEA [EPHA10_Y959_A956T] 0.713, LTVVIYVLIGR [EPHA3_Y561] 0.301, GRFCGYKSKHG [EPHA3_Y570] 2.01, GRFSGYKSKHG [EPHA3_Y570_C568S] 0.77, AEPHTYEEPGR [EPHA8_Y616] 0.51, LAEMNYVHRDL [EPHB1_Y740] 0.589
